Out of some 150,000 compounds screened, about 540 (0.36%) showed an effect of 50% or more. Some of the results follow.

The subject of this assay is Plasmodium falciparum. In words: Primary screen in NF54 nanoGlo assay, in single point, at 2uM, 72h; a lower Z score goes with more inhibition. The assay is classed as functional, Erythrocyte. The settings on record: timepoint 72 hour.
Usually % Inhibition stands for the relative decrease from the control value, in per cent. For the compound `COc1cccc([C@H](CN2CCN(S(=O)(=O)c3cc(F)cc(F)c3)CC2)OCc2ccc(C)cc2)c1`, the “% Inhibition” value is -3% and the Z score stood at 0.56.

Take `CC(C)[C@H](Nc1ccc2c(c1)C(=O)NCC2)c1ccc(F)cn1`: the “% Inhibition” value is reported as -6% and the Z score amounted to 1.21.

Turning to `CCc1ccc(C(=O)NCC(C)(C)N2CC(C)CC(C)C2)cc1S(=O)(=O)N1CCOCC1` (stereo not given), the “% Inhibition” value is recorded as -13% and the Z score was 1.54.

Regarding `COc1cc(F)ccc1S(=O)(=O)N1CCN(Cc2c(-c3ccc(Cl)cc3)nc3ccc(-c4ccccc4)cn23)CC1`, the “% Inhibition” value was -3% and the Z score is 0.63.

Turning to `Cc1ncoc1C(=O)N1CC(C)(C)[C@@](C)(O)C1`, the “% Inhibition” value was -13% and the Z score is on record as 1.15.

In the case of `Oc1cccc(CN(C[C@H]2CCC=CO2)C2CCC(O)CC2)c1` (stereo not given in full), the “% Inhibition” value is 1% and the Z score is -0.12.

For the compound `Cc1ccccc1C1(NC(=O)c2cc(Cl)c[nH]c2=O)CC1`, the “% Inhibition” value came to 10% and the Z score is listed as -1.36.

With `CC1CCC(NC(=O)CN2CCN(Cc3cccc(Cl)c3)C2=O)CC1` (stereo not given), the “% Inhibition” value is reported as 29% and the Z score was -3.97.

Turning to `O=C1CCCN1c1ccc(-c2csc(-c3cnccn3)n2)cc1`, the “% Inhibition” value is listed as -22% and the Z score is listed as 3.36.

Take `Cc1nc[nH]c1CN1CCC2(CC1)C[C@@H](c1ccccc1)C(=O)N(C1CC1)C2`: the “% Inhibition” value is -5% and the Z score is recorded as 0.58.

For `Nc1ccc(C(=O)N2CCC(n3cc(Cc4ccccc4)nn3)CC2)cn1`, the “% Inhibition” value is given as -14% and the Z score was determined as 1.79.

On to `COC(=O)[C@H](Cc1ccc(OC)cc1)NC(=O)[C@H]1CN(C(=O)Nc2ccccc2)CCN1C(=O)NC(C)C`, for which the “% Inhibition” value was found to be 3% and the Z score is -0.42.

`O=C(NCC1CCCCC1)c1ccc(CN2C(=O)NC3(CCS(=O)(=O)CC3)C2=O)cc1`: the “% Inhibition” value is recorded as -13% and the Z score was 1.49.

With `O=C(C[C@@H]1C[C@H]2O[C@H](CNC(=O)NCc3ccccc3)[C@@H](O)[C@H]2O1)NC1CC1`, the “% Inhibition” value is -4% and the Z score came out at 0.57.

`CCCn1cc(C(=O)N(C)C[C@H]2CCCCO2)c(C)n1`: the “% Inhibition” value is -7% and the Z score is reported as 0.96.

As to `Cc1cccc(C(=O)N(Cc2cc(NC(=O)c3cccs3)ccc2N(C)C)[C@@H](C)C(C)C)c1`, the “% Inhibition” value worked out at 5% and the Z score is on record as -0.82.

With `O=C(Nc1ccn(Cc2cccnc2)n1)c1ccc(-c2ccccc2F)o1`, the “% Inhibition” value amounted to 36% and the Z score is -4.82.

In the case of `CCc1ccc(-c2nc(C)no2)cc1S(C)(=O)=O`, the “% Inhibition” value is -3% and the Z score is listed as 0.59.

Take `O=C(Nc1ccccn1)[C@@H]1CCC(=O)N1C(=O)OCc1ccccc1`: the “% Inhibition” value was -1% and the Z score came out at 0.11.

As to `N#CCCN(CCC#N)Cc1cc(F)cc(Br)c1`, the “% Inhibition” value is on record as -9% and the Z score is on record as 0.99.

As to `Cc1cc(C)c(C#N)c(-c2cccc(C(=O)NCCc3n[nH]c(=O)n3C)c2)n1`, the “% Inhibition” value was -8% and the Z score is given as 0.86.

As for `N[C@H]1[C@H](O)[C@@H](N2CCC(Cc3ccccc3)CC2)[C@@H]2OC[C@H]1O2`, the “% Inhibition” value was -5% and the Z score is 0.7.

As to `Cc1cc(C(=O)N2CCS(=O)(=O)CC2)sc1-c1ccccc1`, the “% Inhibition” value is -1% and the Z score was 0.25.

As for `COc1ccc(CN(C(=O)c2cc(-c3ccccc3)on2)[C@H]2CCS(=O)(=O)C2)cc1OC`, the “% Inhibition” value is reported as -1% and the Z score is on record as 0.17.

Take `CCn1ncc(CN2C3CCC2Cn2c(C)nnc2C3)c1C` (stereo not given): the “% Inhibition” value is reported as -12% and the Z score is 1.61.

Consider `Cc1ccc(CN(C)C(=O)Nc2cccc(N3CCCC3=O)c2)nc1`, for which the “% Inhibition” value is given as -15% and the Z score is 1.6.

For `C#CCCCCNC(=O)OCc1ccccc1`, the “% Inhibition” value is recorded as -7% and the Z score came to 1.01.

As to `Cn1cc(Cl)c(CNC(=O)NC[C@H]2CCOC2)n1`, the “% Inhibition” value is 0% and the Z score was determined as 0.01.

For the compound `CS(=O)(=O)NCC1CCOC1c1ccccc1` (stereo not given), the “% Inhibition” value was -9% and the Z score is reported as 1.24.

As to `COCC1(C(=O)N2C[C@H](OC)[C@@H](O)C2)CCC1`, the “% Inhibition” value is recorded as -8% and the Z score came to 1.09.

As to `COc1ccccc1NC(=O)c1[nH]c2cc(C)sc2c1CN1CCOCC1`, the “% Inhibition” value is listed as 4% and the Z score is given as -0.43.

Turning to `O=C(NCC(F)(F)c1ccccc1)N1CCC2(CCC2)S(=O)(=O)CC1`, the “% Inhibition” value is -1% and the Z score is reported as 0.08.

Take `COCC1(CNC(=O)c2cc(F)ccc2O)CCC1`: the “% Inhibition” value is listed as -24% and the Z score is 2.58.

In the case of `CC1CCCN(C(=O)Cc2csc(-c3ccoc3)n2)C1CN` (stereo not given), the “% Inhibition” value is recorded as 1% and the Z score is -0.11.

Take `Cc1cc(C(=O)NCc2ccc(N3CCOCC3)cc2)ccc1N(C)S(C)(=O)=O`: the “% Inhibition” value was determined as 7% and the Z score is -0.9.

For `O=C(NCC1CCN(c2cc(-c3ccc(F)cc3)n[nH]2)CC1)c1n[nH]c2c1CCCC2`, the “% Inhibition” value was -18% and the Z score turned out to be 1.86.

`Cc1cc(N2C(=O)CN(Cc3cccc(Br)c3)C2=O)no1`: the “% Inhibition” value is 24% and the Z score is listed as -2.66.

Turning to `CC(C)[C@H](N)C(=O)NC[C@H](CC(=O)NC[C@H]1CC[C@H](C(=O)O)CC1)c1ccc(Cl)cc1`, the “% Inhibition” value was -12% and the Z score was 2.18.

`O=C(N1CCCCC1)[C@@]1(CCO)CC12CCOCC2`: the “% Inhibition” value was found to be 11% and the Z score is -2.11.

For `Cc1nn(C)c(Cl)c1CNCc1ccc(N2CCCC2=O)cc1`, the “% Inhibition” value was -5% and the Z score came out at 0.6.

(Values after ChEMBL document CHEMBL4888484, “Replenishing the malaria drug discovery pipeline: Screening and hit evaluation of the MMV Hit Generation Library 1 (HGL1) against asexual blood stage Plasmodium falciparum ,using a nano luciferase reporter read-out” (2022).)
